The test system of test [1] is HSkMC (human skeletal muscle cells). In words: cytotoxicity call (relative viability < 0.9). Particulars: 10 µM.
The subject of test [2] is HepG2. In words: cytotoxicity call (relative viability < 0.9). Particulars: 10 µM.
Test [3] relates to S. aureus RN4220. The test is described as follows: growth inhibition call (relative growth <= 0.2). The settings on record: 50 µM.

SMILES strings stand for the structures. The list shows a part of the results.

Take `C[C@H]1CN([C@@H](C)CO)C(=O)c2cccc(NS(=O)(=O)c3cn(C)cn3)c2O[C@@H]1CN(C)S(=O)(=O)c1cccs1`: the cytotoxicity call in test [1] and in test [2] was “inactive” each time. In test [3], the growth inhibition call is “inactive”.
As to `C[C@H]1CN([C@@H](C)CO)C(=O)c2cc(NS(=O)(=O)c3ccccc3)ccc2O[C@@H]1CN(C)Cc1ccc(-c2ccccc2)cc1`, the cytotoxicity call in test [1] and in test [2] was “inactive” in each case. For the same molecule, the growth inhibition call in test [3] was “inactive”.
In the case of `CS(=O)(=O)CCC/C(=N\OS(=O)(=O)O)S[C@@H]1O[C@H](CO)[C@@H](O)[C@H](O)[C@H]1O`, the cytotoxicity call in test [1] and in test [2] was “inactive” each time. Besides, the growth inhibition call in test [3] is “inactive”.
In the case of `NC[C@@H](O)c1ccsc1`, the cytotoxicity call in test [1] and in test [2] was “inactive” throughout. Also, the growth inhibition call in test [3] is “inactive”.
Consider `COc1ccc(S(=O)(=O)N(C)C[C@H]2Oc3c(NC(=O)c4ccncc4)cccc3C(=O)N([C@@H](C)CO)C[C@@H]2C)cc1`, for which the cytotoxicity call in test [1] and in test [2] was “inactive” in each case. In addition, in test [3], the growth inhibition call is “inactive”.
As for `C[C@@H]1CN([C@H](C)CO)C(=O)c2cc(NC(=O)CCCCCC(=O)Nc3ccccc3N)ccc2O[C@@H]1CN(C)C(=O)Nc1ccccc1`, the cytotoxicity call in test [1] and in test [2] was “inactive” throughout. Besides, the growth inhibition call in test [3] was “inactive”.
On to `C[C@@H]1CNS(=O)(=O)CO1`, for which the cytotoxicity call in test [1] and in test [2] was “inactive” each time. Moreover, in test [3], the growth inhibition call was “inactive”.
On to `Cc1cccc(Nc2ccccc2C(=O)O)c1C`, for which the cytotoxicity call in test [1] and in test [2] was “inactive” each time. For the same molecule, the growth inhibition call in test [3] is “inactive”.
`Cc1noc(C)c1NC(=O)Nc1ccc2c(c1)C(=O)N([C@@H](C)CO)C[C@@H](C)[C@@H](CN(C)C(=O)C1CCCCC1)OCCCC[C@@H](C)O2`: the cytotoxicity call in test [1] and in test [2] was “inactive” throughout. Further, the growth inhibition call in test [3] is “inactive”.
On to `CC(C)NC(=O)Nc1ccc2c(c1)C(=O)N([C@@H](C)CO)C[C@H](C)[C@@H](CN(C)C(=O)Nc1ccccc1)OCCCC[C@H](C)O2`, for which the cytotoxicity call in test [1] and in test [2] was “inactive” each time. The growth inhibition call in test [3] is “inactive”.
With `CC(=O)NC[C@H]1C[C@@H](N(C(C)=O)S(=O)(=O)c2cccc3cncc(C)c23)CN1`, the cytotoxicity call in test [1] and in test [2] was “inactive” each time. Moreover, the growth inhibition call in test [3] is “inactive”.
For `CCOC(=O)C(CCc1ccccc1)NC(C)C(=O)N1C(C(=O)O)CC2CCCCC21` (centres undefined), the cytotoxicity call in test [1] and in test [2] was “inactive” in each case. For the same molecule, the growth inhibition call in test [3] was “inactive”.
For `O=C(C[C@@H]1CC[C@@H]2[C@H](COC[C@@H](O)CN2S(=O)(=O)c2ccccc2Cl)O1)NCc1ccccc1Cl`, the cytotoxicity call in test [1] and in test [2] was “inactive” each time. In addition, the growth inhibition call in test [3] was “inactive”.
For the molecule `COc1ccc(NC(=O)Nc2ccc3c(c2)C(=O)N([C@@H](C)CO)C[C@@H](C)[C@H](CN(C)S(=O)(=O)c2ccc(F)cc2)OCCCC[C@@H](C)O3)cc1`, the cytotoxicity call in test [1] and in test [2] was “inactive” throughout. The growth inhibition call in test [3] is “inactive”.
For the molecule `COc1cc2c(cc1OC)CN(CCc1ccc(NC(=O)c3cc(OC)c(OC)cc3NC(=O)c3cnc4ccccc4c3)cc1)CC2`, the cytotoxicity call in test [1] is “inactive”. Besides, the cytotoxicity call in test [2] is “active”. In addition, the growth inhibition call in test [3] is “inactive”.
`C[C@H](CO)N1C[C@H](C)[C@H](CN(C)CC2CCCCC2)OCCCC[C@H](C)Oc2ccc(NC(=O)Nc3ccccc3)cc2C1=O`: the cytotoxicity call in test [1] and in test [2] was “active” each time. Also, the growth inhibition call in test [3] was “inactive”.
For `C[C@@H]1CN([C@@H](C)CO)C(=O)c2cc(NC(=O)Cc3cn(C)c4ccccc34)ccc2O[C@@H]1CN(C)Cc1ccc(Cl)c(Cl)c1`, the cytotoxicity call in test [1] and in test [2] was “active” in each case. Moreover, the growth inhibition call in test [3] was “inactive”.
As to `COc1ccc(NC(=O)Nc2ccc3c(c2)C(=O)N([C@H](C)CO)C[C@@H](C)[C@H](CN(C)Cc2ccccc2)OCCCC[C@H](C)O3)cc1`, in test [1], the cytotoxicity call is “inactive”. For the same molecule, the cytotoxicity call in test [2] is “active”. The growth inhibition call in test [3] was “inactive”.
In the case of `Cc1ccc(S(=O)(=O)Nc2ccc3c(c2)C(=O)N([C@@H](C)CO)C[C@@H](C)[C@H](CN(C)C(=O)Cc2ccccc2)OCCCC[C@@H](C)O3)cc1`, the cytotoxicity call in test [1] and in test [2] was “inactive” each time. Further, in test [3], the growth inhibition call is “inactive”.
Turning to `C[C@@H]1CN([C@@H](C)CO)C(=O)c2cc(NC(=O)C3CCCCC3)ccc2O[C@@H]1CN(C)Cc1ccc(Oc2ccccc2)cc1`, the cytotoxicity call in test [1] and in test [2] was “inactive” in each case. Moreover, in test [3], the growth inhibition call is “inactive”.
Consider `C[C@@H]1CCCCO[C@H](CN(C)C(=O)Nc2ccc(C(F)(F)F)cc2)[C@@H](C)CN([C@H](C)CO)C(=O)c2cc(NS(=O)(=O)c3ccc(Cl)cc3)ccc2O1`, for which the cytotoxicity call in test [1] and in test [2] was “inactive” in each case. Also, the growth inhibition call in test [3] is “inactive”.
For `C[C@@H]1CN([C@@H](C)CO)C(=O)CCCn2nncc2CO[C@@H]1CN(C)S(=O)(=O)c1ccccc1C#N`, the cytotoxicity call in test [1] and in test [2] was “inactive” in each case. The growth inhibition call in test [3] is “inactive”.
As to `COc1ccc(-c2cnc3c(c2)C(=O)N([C@@H](C)CO)C[C@H](C)[C@H](CN(C)C(=O)C2CCOCC2)O3)cc1`, the cytotoxicity call in test [1] and in test [2] was “inactive” in each case. The growth inhibition call in test [3] is “inactive”.
With `C=CC(=O)NCCCCNC(=O)C=C`, the cytotoxicity call in test [1] and in test [2] was “inactive” throughout. Further, in test [3], the growth inhibition call is “inactive”.
For the molecule `Cc1ccc(S(=O)(=O)N(C)C[C@@H]2OCCCC[C@H](C)Oc3ccc(NC(=O)Nc4ccccc4)cc3C(=O)N([C@H](C)CO)C[C@@H]2C)cc1`, the cytotoxicity call in test [1] and in test [2] was “inactive” in each case. In test [3], the growth inhibition call was “inactive”.
For the molecule `CC(C)[C@@H](CO)N1C(=O)[C@@H]2[C@H]3C(=O)O[C@H](C)CC/C=C\[C@H]3O[C@]23C=CCN(Cn2nnc4ccccc42)C(=O)[C@@H]13`, the cytotoxicity call in test [1] and in test [2] was “inactive” in each case. Besides, the growth inhibition call in test [3] was “inactive”.
Take `C[C@@H]1CCCCO[C@@H](CN(C)S(=O)(=O)c2ccc(F)cc2)[C@@H](C)CN([C@H](C)CO)C(=O)c2cc(NC(=O)Nc3ccc(C(F)(F)F)cc3)ccc2O1`: the cytotoxicity call in test [1] and in test [2] was “inactive” in each case. Further, the growth inhibition call in test [3] was “inactive”.
For `COc1ccc([C@H]([C@H](Cc2ccccc2)OC(C)=O)N(CC#C[C@@H](O[Si](c2ccccc2)(c2ccccc2)C(C)(C)C)c2ccccc2)[C@@H](Cc2ccccc2)C(OC)OC)cc1`, the cytotoxicity call in test [1] and in test [2] was “inactive” each time. The growth inhibition call in test [3] was “inactive”.
